According to the supplement of paper PMC4166925:
± gives the standard deviation of the averaged measurements. In all, about 33,000 sequences were measured (“E-score (dimensionless, -0.5 to 0.5)”: median about -0.046, highest 2% from about 0.36 on). The list shows a part of the results.

test system: T1, SpTbr T-box DNA-binding domain (GST fusion); assay: PBM E-score of 8-mer (E-score (dimensionless, -0.5 to 0.5)); Tbr is Tbrain of the sea star Patiria miniata (Pm) or the sea urchin Strongylocentrotus purpuratus (Sp); higher = stronger binding preference; most listed sequences are background and not binding sites; conditions: the construct has about 5 more residues each side
T1 sequence: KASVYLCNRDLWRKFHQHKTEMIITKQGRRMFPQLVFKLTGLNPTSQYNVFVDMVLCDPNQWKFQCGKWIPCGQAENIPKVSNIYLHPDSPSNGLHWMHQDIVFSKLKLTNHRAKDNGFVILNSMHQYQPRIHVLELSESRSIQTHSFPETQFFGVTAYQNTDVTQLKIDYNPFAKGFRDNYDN
Procedure, shortened: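 Primer extension turned Universal Agilent oligonucleotide arrays double-stranded. They were incubated with 200 nM protein in PBS (pH 7.5); the protein was a GST-fused Tbr T-box DNA-binding domain expressed in BL21 E. coli at 20 °C and purified on glutathione. Every ungapped 8-mer was scored from the scanned, quantified probe intensities, and the Universal PBM Analysis Suite gave each an enrichment E-score averaged over duplicate arrays.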

| Sequence | PBM E-score of 8-mer |
| --- | --- |
| AGGTAGTA | -0.109 ± 0.075 |
| CAGCCCGA | -0.23105 ± 8.5e-05 |
| ACGCAGCG | -0.0568 ± 0.023 |
| AGGAACAC | 0.119 ± 0.05 |
| ATGCGACG | -0.0552 ± 0.022 |
| AGTCATTC | 0.0184 ± 0.041 |
| CTTACGAA | -0.0673 ± 0.021 |
| GAGGGCAA | -0.0557 ± 0.006 |
| TACTGGCA | 0.096 ± 0.038 |
| CACCTAGA | 0.294 ± 0.073 |
| TACTCGGA | -0.173 ± 0.045 |
| AACCTACA | 0.115 ± 0.031 |
| AAGAGGAT | 0.0367 ± 0.026 |
| ACAAGATC | -0.00501 ± 0.022 |
| CTATGCAG | -0.164 ± 0.12 |
| AAAATTGT | -0.00993 ± 0.011 |
| TCCCTGCA | -0.144 ± 0.026 |
| GACGTGCC | 0.213 ± 0.03 |
| AGGGGGTC | -0.232 ± 0.052 |
| ATGGCCTA | -0.224 ± 0.048 |
| ATTAACGG | -0.0998 ± 0.097 |
| GTTGAGAA | 0.245 ± 0.027 |
| GTACTGCA | -0.0903 ± 0.067 |
| ACTGCTCT | -0.169 ± 0.043 |
| GTGTCAGA | 0.387 ± 0.023 |

| Sequence | PBM E-score of 8-mer |
| --- | --- |
| GACCAATC | 0.0964 ± 0.073 |
| CCCGGGAG | -0.175 ± 0.0097 |
| CTACATCC | -0.0668 ± 0.02 |
| CATAAGTC | -0.18 ± 0.0024 |
| CAGTACAC | -0.0373 ± 0.0042 |
| AATAGTGC | 0.118 ± 0.018 |
| GGACGTCC | -0.204 ± 0.046 |
| CCCCAACC | -0.132 ± 0.064 |
| AGAAAGAC | -0.162 ± 0.0095 |
| GAAATGCC | -0.0459 ± 0.042 |
| GATTTCGA | -0.00198 ± 0.018 |
| CAGAACAG | -0.167 ± 0.029 |
| AGCGGTGA | -0.00518 ± 0.036 |
| ACTAAGAG | -0.118 ± 0.024 |
| AGTAATAA | -0.2 ± 0.054 |
| CGCATGCA | -0.044 ± 0.025 |
| AGGCCGTA | -0.206 ± 0.062 |
| GGGGCAAA | -0.083 ± 0.049 |
| GCCGAAGA | -0.195 ± 0.015 |
| ACTGCAAC | -0.0487 ± 0.026 |
| GCCTAGCA | -0.00432 ± 0.063 |
| CATCTAAA | -0.163 ± 0.075 |
| AAATGCCT | -0.188 ± 0.047 |
| GACATGTA | 0.0701 ± 0.015 |
| AATATCCT | -0.27 ± 0.026 |

| Sequence | PBM E-score of 8-mer |
| --- | --- |
| CCGGTCAG | -0.144 ± 0.022 |
| ATCCGGTC | -0.0309 ± 0.01 |
| GTCCATAA | -0.314 ± 0.024 |
| ACTAGGTG | 0.403 ± 0.012 |
| GAAGTGAA | 0.3 ± 0.0084 |
| GTCCGCTA | 0.0475 ± 0.0043 |
| AGCGCCCA | 0.0833 ± 0.077 |
| ATTAGGTA | -0.128 ± 0.05 |
| GCGCCGCA | 0.18 ± 0.016 |
| GCGCATAA | -0.108 ± 0.026 |
| ATCTTACC | -0.266 ± 0.054 |
| GCATAGGA | -0.35 ± 0.05 |
| ATCTCCCA | -0.152 ± 0.05 |
| ACGTCTTA | 0.0179 ± 0.075 |
| AGAATCTG | -0.0658 ± 0.088 |
| GCTAAAAA | 0.043 ± 0.005 |
| CACGCATA | 0.2247 ± 0.00032 |
| CAGAGTAC | -0.0758 ± 0.089 |
| CGCTGCCG | 0.141 ± 0.017 |
| GACGGGCC | -0.12 ± 0.046 |
| TAACTAAA | -0.136 ± 0.068 |
| CCGCGGCC | -0.255 ± 0.11 |
| TGCCTAAA | 0.05 ± 0.06 |
| CAACGCTG | 0.178 ± 0.016 |
| AGCGTTTA | -0.113 ± 0.017 |

| Sequence | PBM E-score of 8-mer |
| --- | --- |
| AGTGCTCC | -0.0941 ± 0.03 |
| AACCGATT | -0.0309 ± 0.044 |
| CGAACCAC | 0.0139 ± 0.059 |
| ATGTATCA | 0.144 ± 0.021 |
| GAGTAATC | 0.0889 ± 0.028 |
| GTAAATCA | -0.00407 ± 0.026 |
| AAAATGTT | -0.234 ± 0.062 |
| GCTGGACC | -0.282 ± 0.085 |
| AGAATCAG | -0.267 ± 0.034 |
| CAGGCATA | -0.2 ± 0.026 |
| GATAGCAC | 0.3602 ± 0.0019 |
| CGGAACAG | -0.0788 ± 0.066 |
| GAAGCCGC | 0.0501 ± 0.038 |
| TCCCACCA | 0.154 ± 0.04 |
| GACTGCTC | -0.193 ± 0.02 |
| AAGTACGA | -0.0585 ± 0.034 |
| GGGACGGA | -0.163 ± 0.063 |
| CACACTAA | 0.305 ± 0.034 |
| GACCGTGC | 0.00624 ± 0.061 |
| GTGAGCGA | 0.2245 ± 0.00028 |
| AGGCTGAA | -0.129 ± 0.037 |
| CCGTCTCC | -0.189 ± 0.043 |
| CAGGAGCG | -0.0447 ± 0.098 |
| AAGGGTGA | 0.136 ± 0.04 |
| ACTCGTAT | 0.0399 ± 0.089 |

| Sequence | PBM E-score of 8-mer |
| --- | --- |
| AGAGACCC | -0.192 ± 0.0083 |
| CTGGGCTC | -0.215 ± 0.054 |
| ACTTAACT | 0.104 ± 0.0014 |
| CTCGGGCC | -0.167 ± 0.0065 |
| CAATGGAC | -0.0329 ± 0.0081 |
| CCCAGACC | -0.0208 ± 0.1 |
| CGAGTCCA | -0.183 ± 0.08 |
| GAGCGAAA | 0.0791 ± 0.049 |
| ATTTAGCG | 0.0855 ± 0.028 |
| ACCACAAC | 0.121 ± 0.067 |
| ACTGCATA | 0.0429 ± 0.064 |
| CCGCCCAG | 0.0779 ± 0.012 |
| GACTGCTA | -0.00799 ± 0.013 |
| AAAGCTTA | -0.0784 ± 0.018 |
| ACAACCAA | 0.0641 ± 0.0038 |
| GAGCATAC | 0.00464 ± 0.0056 |
| CGAATTCC | -0.0929 ± 0.082 |
| AGTCCCAC | 0.0601 ± 0.042 |
| ATGCAATA | -0.39 ± 0.032 |
| GCAACAAC | 0.0625 ± 0.016 |
| CGAAATAA | 0.201 ± 0.069 |
| TCACTTCA | 0.151 ± 0.018 |
| GGTGTAGA | 0.35 ± 0.009 |
| AGCACCGG | -0.0409 ± 0.027 |
| AATAAAAT | -0.0829 ± 0.032 |

| Sequence | PBM E-score of 8-mer |
| --- | --- |
| ATCTCCAC | 0.0376 ± 0.0077 |
| GCCTGGCA | 0.127 ± 0.019 |
| GATTCCCA | 0.0623 ± 0.015 |
| AAGCGTTC | 0.00311 ± 0.039 |
| AGCATCCT | -0.0697 ± 0.018 |
| AGACATCT | -0.116 ± 0.036 |
| AGACAACA | 0.231 ± 0.044 |
| TCTCTCAA | 0.139 ± 0.051 |
| GGAGCGTA | -0.158 ± 0.04 |
| ACAAATAT | 0.0365 ± 0.017 |
| AAACTAAC | 0.171 ± 0.017 |
| ATTAGTCC | -0.319 ± 0.084 |
| AAGACACC | 0.31 ± 0.023 |
| ACTCGTTA | 0.118 ± 0.074 |
| ACATATTA | -0.0539 ± 0.0078 |
| CTGGTAAG | -0.132 ± 0.066 |
| AGGTTTGA | 0.0298 ± 0.023 |
| AAGAGGAA | -0.192 ± 0.072 |
| GGCGGTAC | 0.00445 ± 0.029 |
| GATGCGCA | 0.014 ± 0.028 |
| ATGTGTGG | 0.356 ± 0.007 |
| TCAGCGCA | 0.0158 ± 0.036 |
| GCTTGGCC | -0.297 ± 0.015 |
| CTAGAATC | -0.0795 ± 0.0046 |
| CTGTCACC | 0.396 ± 0.0078 |

| Sequence | PBM E-score of 8-mer |
| --- | --- |
| CTTTAAAG | 0.0215 ± 0.12 |
| CATGTCAG | -0.0973 ± 0.0046 |
| AGTGAGCC | 0.00758 ± 0.039 |
| GATCAAAC | 0.0452 ± 0.025 |
| AGTTGACG | 0.226 ± 0.0068 |
| GAAGCCTA | -0.182 ± 0.037 |
| TCAGCCCA | -0.148 ± 0.021 |
| CATCACTC | 0.174 ± 0.013 |
| ACACGAAC | 0.0531 ± 0.046 |
| CGTTTCAC | 0.0842 ± 0.04 |
| CACTAACA | 0.317 ± 0.0051 |
| ATCGTCAT | -0.00478 ± 0.05 |
| CCCGTACG | -0.225 ± 0.054 |
| ACGACTGG | 0.0652 ± 0.014 |
| CCTGCCTC | 0.0708 ± 0.019 |
| CCTTCAAC | -0.0636 ± 0.076 |
| CGGGGCAA | -0.153 ± 0.13 |
| AATTTCCT | -0.0532 ± 0.12 |
| AGACTATA | 0.0119 ± 0.036 |
| CAGGATCC | -0.233 ± 0.036 |
| CACGGACG | -0.0275 ± 0.00073 |
| CGCTTGCC | 0.0884 ± 0.049 |
